Assay results taken from PubChem BioAssay AID463173 (ICCB-Longwood Screening Facility, Harvard Medical School, 2010).
Out of some 52,000 compounds screened, about 1,700 (3.3%) were called active. Rule as the data show it: active = survival mostly below about 52% (no sharp cut-off); inactive = mostly above about 56%. This is one part of the list.

System: Wild type
Test: S. aureus survival, RN4220 and DeltatarO strains – OD600, teichoic acid synthesis inhibitors, primary screen (AID 463173)
Conditions: S. aureus RN4220 wild type/DeltatarO growth, OD600, 18 h, hits give low values, screened at 18.75 µg/mL (by protocol)

Row | Compound | survival
1 | CCOc1ccc(-c2nc(C(N)=O)c3c(n2)n(-c2ccc4c(c2)OCO4)c(=O)n3CC)cc1 | inactive: 79%
2 | COc1ccc(Cl)cc1NC(=O)CSc1nnc2[nH]c(=O)cc(C)n12 | inactive: 97%
3 | Cc1ccc(CNC(=O)Cn2cc3c(n2)-c2c(oc(C(=O)N4CCOCC4)c2C)CC3)cc1 | inactive: 85%
4 | O=S(=O)(NCC(c1ccco1)N1CCOCC1)c1ccc(F)cc1 (stereo not given) | inactive: 84%
5 | Cc1cc(C)c2oc(C(=O)Nc3c(C(=O)c4ccccc4)oc4ccccc34)cc(=O)c2c1 | inactive: 88%
6 | CC1=C(C(N)=O)C(c2ccccc2F)n2nc(-c3ccc(Cl)cc3)nc2N1 (stereo not given) | inactive: 94%
7 | COC(=O)c1cc(S(=O)(=O)N2CCN(c3cc(Cl)ccc3C)CC2)c[nH]1 | active: 8%
8 | COc1cc2c(=O)c(C(=O)c3ccc(F)cc3)cn(Cc3cccc(F)c3)c2cc1OC | inactive: 88%
9 | Cc1ccc(C(=O)NCCC(C)C)cc1NC(=O)c1nsc2ccccc12 | inactive: 69%
10 | CCN(CC)c1ccc(NC(=O)Cn2c3ncccc3c(=O)n2-c2ccccc2)c(C)c1 | inactive: 68%
11 | COc1ccccc1CNc1ncnc2c1c(-c1ccccc1)cn2-c1ccc(Br)cc1 | inactive: 71%
12 | Cc1ccc2c(c1)-c1c(cnn1CC(=O)N1CCN(c3cc(C)ccc3C)CC1)CO2 | inactive: 64%
13 | Cc1ccccc1S(=O)(=O)Cc1ccc(C(=O)NCCc2ccccc2)o1 | inactive: 91%
14 | CCOc1ccc(-c2nnc(N(C(=O)C3CCC3)C(C)C)s2)cc1 | inactive: 106%
15 | Cc1ccccc1CNC(=O)C(=O)NCC(c1ccc2c(c1)OCO2)N1CCOCC1 (stereo not given) | inactive: 68%
16 | CCC1CCCCN1C1CC(=O)N(c2ccc(NC(C)=O)cc2)C1=O (stereo not given) | inactive: 100%
17 | CN(CCCNC(=O)Cn1ncc2c([nH]c3ccccc32)c1=O)Cc1ccccc1 | inactive: 73%
18 | CC1CCN(c2csc3ccc(F)cc3c2=O)CC1 | inactive: 126%
19 | Cc1n[nH]c(C)c1Cc1ccc(N)cc1 | inactive: 112%
20 | O=C(NCc1ccc(Cl)cc1)c1ccc(CNS(=O)(=O)c2ccc(F)cc2)cc1 | inactive: 75%
21 | CC(C)N1CCc2c(sc(NC(=O)c3ccc(S(=O)(=O)N(C)C4CCCCC4)cc3)c2C(N)=O)C1 | inactive: 88%
22 | COCCc1nn2c(=O)cc(COC(=O)c3ccco3)nc2s1 | inactive: 76%
23 | O=C(Nc1ccccc1)C1CC(=O)N(c2ccccc2)C1 (stereo not given) | inactive: 105%

Row | Compound | survival
24 | CC(=O)c1ccc(NC(=O)c2cc(S(=O)(=O)N3CCOCC3)ccc2C)cc1 | inactive: 67%
25 | O=C(CCN1CCCCC1)Nc1ccccc1 | inactive: 110%
26 | CCC(Sc1nc2cc(OC)c(OC)cc2c(=O)n1Cc1ccc(OC)cc1)C(=O)NCCOC (stereo not given) | inactive: 69%
27 | Cc1cc(N2CCN(c3ccccc3)CC2)n2cnnc2n1 | inactive: 92%
28 | COc1ccc(CCNC(=O)c2ccc(Cn3c(=O)c4ccccc4n(Cc4ccc(F)cc4Cl)c3=O)cc2)cc1OC | inactive: 91%
29 | c1ccc2c(NCC3CCCO3)nc(N3CCCCC3)nc2c1 (stereo not given) | inactive: 106%
30 | CC(C)(C)c1ccc(C(=O)Nc2ccc(OCc3cc(=O)n4ccsc4n3)cc2)cc1 | inactive: 90%
31 | CCN1CCN(C(=O)c2ccc3c(c2)N(Cc2ccccc2)C(=O)c2ccccc2S3(=O)=O)CC1 | inactive: 112%
32 | CCCN1CCN(CCCNC(=O)c2ccc3c(c2)sc2nc(-c4ccc(OCC)cc4)cn23)CC1 | inactive: 36%
33 | Cc1ccc(CN(CC(=O)NC2CCCC2)C(=O)CSc2nnc(COc3ccccc3)o2)cc1 | inactive: 112%
34 | CCOc1ccc(-c2cn3c(n2)sc2cc(C(=O)N4CCCC(C)C4)ccc23)cc1 (stereo not given) | inactive: 60%
35 | Cc1nc(-c2ccc(F)cc2)sc1CCNC(=O)c1ccc(OC(C)C)cc1 | inactive: 74%
36 | Cc1cc(C)cc(OCC(=O)N(Cc2ccc(Cl)cc2)C2CCS(=O)(=O)C2)c1 (stereo not given) | inactive: 92%
37 | Cc1nc(N2CCOCC2)c2c(C(=O)N(C)c3ccccc3)c(C)oc2n1 | inactive: 75%
38 | CC(C)Cc1nn2c(=O)cc(COC(=O)c3cccc(NS(C)(=O)=O)c3)nc2s1 | inactive: 105%
39 | COc1cc(CSc2ncc(CO)n2Cc2ccc(C)cc2)cc(OC)c1 | inactive: 76%
40 | COc1ccc(NC(=O)c2ccccc2C(=O)N2CCCCC2)cc1 | inactive: 109%
41 | Cc1ccc(CNC(=O)CN2CCC(n3nnc4cc(C)ccc43)CC2)cc1 | inactive: 102%
42 | CC(C)c1ccc2nc(SCC(=O)NC(C)(C)C)c(C#N)cc2c1 | inactive: 113%
43 | c1ccc(CN(Cc2cccs2)C(c2cccs2)c2nnnn2C2CCCC2)cc1 (stereo not given) | inactive: 116%
44 | COc1ccc(CNC(=O)CCCN2C(=O)CCn3nc(-c4cn(C)c5ccccc45)cc32)cc1 | inactive: 85%
45 | Cc1c(Cl)cccc1NC(=O)CSc1nc(=O)[nH]c2c1CCCC2 | inactive: 54%
46 | O=C(NCCc1ccc(Cl)cc1)C1(c2cccs2)CCOCC1 | inactive: 72%

Row | Compound | survival
47 | Cc1ccc(-n2c(=O)c3cccnc3n2CC(=O)Nc2ccc(C)cc2Cl)cc1 | inactive: 113%
48 | O=C(NCCC1=CCCCC1)C1CCN(C(=O)N2CCOc3ccccc32)CC1 | inactive: 86%
49 | COc1ccc(OC)c(NC(=O)Cn2ncc3c2-c2ccccc2OC3)c1 | inactive: 74%
50 | Cc1cccc(-c2nc(CS(=O)CC(=O)NCc3ccc(Cl)cc3)c(C)o2)c1 (stereo not given) | inactive: 84%
51 | O=C1CN(C(=O)c2ccc(S(=O)(=O)N3CCCCC3)cc2)C(c2ccc(F)cc2)c2cc(Cl)ccc2N1 (stereo not given) | inactive: 86%
52 | O=C(NCCc1ccccc1)c1ccc(CSc2nc3cccnc3n2Cc2ccccc2F)cc1 | inactive: 81%
53 | COc1ccc(C2=C(C)C(=O)N(Cc3ccc(C(=O)Nc4ccc(F)cc4C)cc3)S2(=O)=O)cc1 | inactive: 55%
54 | CCN(CC)CCn1c(=N)n(CCOc2ccccc2Cl)c2ccccc21 | inactive: 69%
55 | CCOC(=O)c1cc(-c2ccccc2)n(CC(=O)NCc2ccc(C)cc2)c1C | inactive: 32%
56 | COc1cccc(-c2cn3c(n2)sc2cc(C(=O)NCc4ccccc4F)ccc23)c1 | inactive: 63%
57 | O=C(NCC(c1cccnc1)N1CCOCC1)C(=O)Nc1ccc(Cl)cc1 (stereo not given) | inactive: 84%
58 | COc1ccc(-c2[nH]ncc2C(=O)NCc2cccc(Cl)c2)cc1 | inactive: 66%
59 | CCOC(=O)c1c(C)oc2nc(C)nc(NCC3CCN(Cc4ccccc4C)CC3)c12 | inactive: 93%
60 | Cc1ccc2nc(-c3cccc(NC(=O)c4cccc5c(Cl)cccc45)c3)oc2c1 | inactive: 108%
61 | CCc1ccccc1NC(=O)c1nc(-c2ccncc2)no1 | inactive: 83%
62 | Cc1cccc(NC(=O)Cn2c(C(F)(F)F)nc3ccccc32)c1C | inactive: 62%
63 | O=C(NCCc1csc2nc(-c3ccc(F)cc3)nn12)c1ccco1 | inactive: 126%
64 | Cc1oc(C(=O)O)cc1CSCc1cc(C(=O)O)oc1C | inactive: 108%
65 | COc1ccc(C)cc1NC(=O)Cn1cc(S(=O)(=O)Cc2ccccc2Cl)c2ccccc21 | inactive: 92%
66 | CCOc1cc2c(cc1OCC)C(c1c(F)cccc1Cl)CC(=O)N2 (stereo not given) | inactive: 85%
67 | CC1CCN(S(=O)(=O)c2cc(C(=O)Nc3ccc(Br)cc3F)n(C)c2)CC1 | inactive: 77%
68 | COC(=O)c1cc(NC(=O)CCc2c(C)nc3cc(-c4ccccc4)nn3c2C)cc(C(=O)OC)c1 | inactive: 123%
69 | Cc1ccc(-c2cc(C(=O)N3CCN(c4ccccc4)CC3)c3ccccc3n2)cc1C | inactive: 132%

Row | Compound | survival
70 | CCOc1ccccc1CNS(=O)(=O)c1csc(C(N)=O)c1 | inactive: 54%
71 | CCOC(=O)c1c(S(=O)(=O)N2CCC(C(=O)N3CCN(c4cc(C)ccc4C)CC3)CC2)c(C)n(C)c1C | inactive: 70%
72 | Cc1sc2c(c1C)c(=O)n(-c1ccc(Cl)cc1)c(=O)n2Cc1c(F)cccc1Cl | inactive: 69%
73 | COc1cc(C2C(C(=O)Nc3ccccc3)=C(C)Nc3nc(SCc4ccccc4F)nn32)cc(OC)c1OC (stereo not given) | inactive: 144%
74 | Cc1ccc(Cn2c(CCCNC(=O)C3CCCCC3)nc3ccccc32)cc1 | inactive: 119%
75 | O=C(Cn1ncc2c(Cl)cccc21)NCc1cccc(Br)c1 | inactive: 129%
76 | O=C(NC1CCCCC1)c1ccc(CSc2nc3cccnc3n2Cc2ccccc2F)cc1 | inactive: 74%
77 | COc1ccc(C(=O)NCCSc2ccccn2)cc1 | inactive: 95%
78 | Cc1ccc(N2CC(NC(=O)C(=O)c3c[nH]c4ccccc34)CC2=O)cc1 (stereo not given) | inactive: 99%
79 | CC(C)CCNC(=O)c1ccc2c(c1)N(Cc1ccccc1F)C(=O)c1ccccc1S2=O (stereo not given) | inactive: 94%
80 | COc1ccccc1OCC(=O)NCC1(N(C)C)CCCCC1 | inactive: 87%
81 | CCN(CC)c1ncnc(Cl)c1Cc1ccc(OC)cc1 | inactive: 120%
82 | Oc1ccc(NCc2ccc(OCc3ccccc3Cl)cc2)cc1 | active: -4%
83 | O=C(CSc1nc(=O)n(Cc2cccnc2)c2c1CCC2)Nc1ccc(F)cc1F | inactive: 83%
84 | Cc1ccc(Cc2nc3ccccc3nc2SCC(=O)N2CCCCC2C)cc1 (stereo not given) | inactive: 110%
85 | COC(=O)c1cccc(NC(=O)Nc2cc(C(=O)NCc3cccc(F)c3)ccc2N2CCCC2)c1 | inactive: 77%
86 | N#C/C(=C\c1c(Oc2ccc(Br)cc2)nc2ccccn2c1=O)c1nc2ccccc2s1 | inactive: 126%
87 | CCCCN1CCc2nc(N3CCN(C)CC3)ncc2C1 | inactive: 81%
88 | O=C(NCCc1csc(-c2cccnc2)n1)c1ccc(F)c(F)c1 | inactive: 133%
89 | CC(=O)N1CCc2cc(Br)cc(S(=O)(=O)N3CCN(c4cccc(C)c4)C(C)C3)c21 (stereo not given) | inactive: 77%
90 | COc1ccc(N2CCN(C(=O)CS(=O)(=O)c3cccc4nsnc34)CC2)cc1 | inactive: 136%
